Data taken from the supplement of paper PMC3334620.
The full ranking holds about 33,000 sequences; the median of “E-score (-0.5 to 0.5)” is about -0.013, and the highest 2% start at about 0.3. Some of the results follow.

Molecular target: T1, Msn1 (UniProt P22148)
T1 sequence: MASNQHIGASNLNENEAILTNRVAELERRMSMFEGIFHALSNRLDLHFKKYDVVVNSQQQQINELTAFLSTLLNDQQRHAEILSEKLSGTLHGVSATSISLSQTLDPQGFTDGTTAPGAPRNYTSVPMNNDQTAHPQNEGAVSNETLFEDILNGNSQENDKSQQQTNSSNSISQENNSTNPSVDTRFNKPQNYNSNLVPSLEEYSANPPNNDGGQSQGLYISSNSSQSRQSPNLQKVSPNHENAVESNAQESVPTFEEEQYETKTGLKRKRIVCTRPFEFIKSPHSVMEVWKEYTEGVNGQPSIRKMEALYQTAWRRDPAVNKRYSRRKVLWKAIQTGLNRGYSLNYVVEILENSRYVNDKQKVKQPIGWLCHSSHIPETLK
Assay: PBM E-score (8-mer binding enrichment) (E-score (-0.5 to 0.5)); higher = stronger / more preferred TF binding; most listed sequences are background and not binding sites
Settings: protein concentration: 200 nM; construct: GST-full length
How it was run: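 GST-tagged yeast TFs (full-length or DNA-binding domain) were made by PURExpress in vitro transcription/translation and applied at about 100-200 nM to universal all-10-mer Agilent arrays. The arrays were made double-stranded by primer extension, on fresh or once-stripped slides. Bound protein was detected with fluorescent anti-GST, and scans were normalised with masliner. Each ungapped eight-base word, pooled with its reverse complement, received an E-score (modified Wilcoxon-Mann-Whitney statistic) from the Universal PBM Analysis Suite.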

Sequence	PBM E-score
GCGTTTGA	0.0269
AATATTGT	0.35
AGCATATC	0.0418
TAACCATA	0.00151
AATCTAAC	-0.16
ATGATCCA	-0.0944
ACTACGTA	0.0555
CCCATCTA	-0.192
ACACCATA	0.0891
CCCAACTA	0.0148
CCCGAGAG	-0.0266
CTACGTGA	-0.136
AATTCGCC	0.157
GCGGGCAA	-0.0658
ATAGCTGC	0.0597
CATTCGTC	0.0978
GGTTGGCA	-0.217
CTAAGTCA	0.0777
GAGAAAGA	-0.0338
TCTAGGAA	0.00834
CGAAAACC	0.123
CGTTAACC	-0.0501
AATATTAT	0.208
GACTGAAA	0.225
AGCCATCA	0.00249

Sequence	PBM E-score
AGGCCCTA	-0.111
AGATACTA	0.0557
ACATTCGG	0.122
GAACAGCC	-0.161
CAGGTAGG	-0.174
CACTTGGA	0.121
AGAGTCAC	-0.0689
ACTAGTAA	0.11
CTCCCTCC	-0.203
CAACTGCG	-0.0264
AACCATAC	-0.0629
TGACTACA	-0.0612
CACTACGC	-0.14
ATCCAGGA	-0.015
GAGCAAAA	-0.0408
CAAGTGTA	0.0882
ACAAGGAA	0.178
CTACTATA	0.0598
GCGCGCAA	0.00272
ACAATCCC	0.0591
AAGTTGGT	0.114
AGTACTCA	0.0998
GGGGGTTA	-0.344
CCGGGATA	0.101
CGCCGTCC	-0.0782

Sequence	PBM E-score
GTACCGGA	0.214
CGGGCGAC	-0.0832
AGTCGTGA	0.065
CTATGTGC	-0.0695
ACTAGAGA	0.0455
CCGGTCTC	-0.0542
AGCATGCG	-0.0235
AGCAGAAC	0.0181
CGGGAATA	0.0169
GGGGTTAC	-0.366
CTTGGACC	-0.163
GACCATAC	0.115
GGCGACCC	-0.458
ACGTTGGC	-0.122
CGTATTGC	0.0136
AAGTTCAG	0.0276
GACTGGTA	-0.022
AGCACTTG	-0.231
AAACGCAG	0.0105
AGTTAAGA	0.0786
CGCTGACC	0.00598
ACCTTCCC	-0.206
CTAGCACC	0.0912
GCTCAGCC	-0.197
GGGACCAA	-0.0643

Sequence	PBM E-score
CAAACTAA	0.24
AAGGATTC	-0.0884
AATATACT	-0.0295
CCTTACAA	-0.0555
AGTAGTAG	-0.116
ACTTGCCC	-0.0294
GAGGGGCC	-0.305
CTCCGCCA	-0.2
TATGGTGA	-0.0581
CGATCCCG	-0.23
CTGTCGGC	-0.108
AGCGTGGC	-0.0004
AATCTATG	0.195
GATTTGAC	-0.0517
CCAGCTGC	-0.3
CGAAACCC	0.00265
ACACGCTG	-0.071
ATAAGCTC	-0.0844
ACTTCGCT	-0.0222
CATAGTTA	-0.00457
CCCTGACA	0.0682
CCCCGCGA	-0.0204
ATAGCCCA	-0.0783
TACAACGA	0.0864
CAATTTGA	0.046

Sequence	PBM E-score
CGGAGGTC	0.0119
GAGGACAA	0.466
GCAGCTAC	-0.0142
CCCATGCG	-0.0652
TATATCAA	0.144
CGCCTAAA	-0.0501
AGGTCAGC	-0.0455
AAGATTTA	-0.0196
AGTACGTC	0.0255
AATACTTG	0.027
CACGCAGC	-0.183
ATAGATCG	0.0721
CTCTAAAA	0.0281
CAAGTTAG	0.074
CCGTTGTA	0.187
GCGTGTAC	0.203
CCACGCGC	-0.165
GAGTTTCA	-0.0592
GATTTCGC	0.187
ATTGATCA	-0.0402
AGTGACCC	-0.109
CGCGATTA	0.0779
CCCAAACA	0.176
AATATCGC	-0.0104
CCGCCACA	-0.168

Sequence	PBM E-score
CTTTTTCC	0.0714
AGATATAT	0.201
GGTAGAAA	-0.00447
GCATCTCC	-0.242
CGCCAACC	-0.228
ACACTCTC	0.0367
AGCGAAAC	0.261
AGGGTATC	-0.0728
AACACGTC	0.0815
AACAACCT	0.114
GAGGTCGA	-0.13
GTGGATAA	0.116
AGGCCTTG	-0.292
AAACAACG	0.0325
CGGCCCGC	-0.182
CGGTAGAG	-0.298
AGGCTGGC	-0.382
AGAAGCCT	0.0272
AGAATAAC	-0.0809
AAAATATC	0.16
CGGTACAA	0.311
AGTCCATG	0.196
ACCTGAAC	-0.066
GCTGATCC	-0.00559
TCACCCAA	0.0406

Sequence	PBM E-score
GCCGTCGA	0.0896
ATGGAGGG	-0.151
ATTGCCGC	-0.0726
GGCTCCCA	-0.174
CAACCACC	-0.121
AAGATGGG	-0.00663
CGTTCTAA	0.07
ACATTCCA	0.229
TGCTTCAA	0.0426
GGCTGCAA	-0.0572
ACCTGCCA	-0.19
ATCCCAGA	-0.198
CCACAGAG	-0.0203
TCTATGAA	0.124
CCAAAACA	-0.0184
AACCGGAC	0.0714
ACGGAAAA	0.108
CGCGAGAG	-0.204
ATGGTCAC	0.0754
TGTGGTAA	0.148
AGTCACAT	-0.126
CGTTAAGA	0.0873
CTCACAAC	0.00456
TAATCGGA	0.255
ATCCTCGA	-0.0696

Sequence	PBM E-score
GAGATCCC	0.0835
ACCGGCCA	-0.121
AGGCCGCC	-0.115
GAGATAAA	0.144
ACCTCAGA	-0.147
AATGGATC	0.104
ATGTAGCG	-0.0985
AGGCAGTG	-0.101
ACCTCTCG	-0.17
ATAGAGGA	-0.141
AGAAGAAC	0.00403
CGCATGAA	-0.0724
AATGTATC	0.24
AGGCACAT	-0.0434
CACACACA	-0.0778
ATGGCAAA	0.0293
AACATGAG	-0.152
CTACACGA	-0.0282
AAACATCC	0.145
CTAACTAG	0.0891
CAGCAGAA	0.112
GCGTCGAA	0.0295
CCTGCGAA	0.0103
CCCATCCC	-0.238
TCCCGTCA	0.0424

Sequence	PBM E-score
AATGTCTG	0.436
AATCGAGG	0.0797
CGCGATGA	0.157
CTCCACAG	-0.226
AGCAGGGA	0.0713
AAAACCGA	0.0393
TCATGACA	0.388
GAACGACC	-0.145
CCTGAAGA	-0.00375
ATTAATCA	0.00845
ATGTACCC	0.115
ACAACCAG	0.177
CAATGTAA	0.0987
AATAGAGT	-0.17
CAAGTGAG	-0.0348
TAAAACGA	0.0314
CGGGAGAA	0.0141
AGGAGTTA	-0.0752
TACGGGAA	-0.15
